Reference: publication PMC9911399, “Two distinct binding modes provide the RNA-binding protein RbFox with extraordinary sequence specificity”
Substitutions are numbered along the chain they refer to; changes in the protein carry UniProt numbers. This is one part of the list.

T1: RBFOX1 RRM RbFoxmut (Fox-RRM*) (Homo sapiens, UniProt Q9NWB1 109-208, R118D;E147R;N151S;E152T)
T1 sequence: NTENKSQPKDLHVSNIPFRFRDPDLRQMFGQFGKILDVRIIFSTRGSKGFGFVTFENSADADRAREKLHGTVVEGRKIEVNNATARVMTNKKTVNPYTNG

B1: CGUCAUA (DNA:RNA)
RNA: GGGAGACCGGAAUUCAGAUUGUCCCGUCAUAUUAAAUCCCGUCGUAGCCACCA
DNA 1: CAATCTGAATTCCGGTCTCCC
DNA 2: TGGTGGCTACGACGGGATT
B2: GAUUACA (DNA:RNA)
RNA: B1 RNA with C25G, G26A, C28U, U30C
DNA 1: CAATCTGAATTCCGGTCTCCC
DNA 2: TGGTGGCTACGACGGGATT
B3: UCAAACU (DNA:RNA)
RNA: B1 RNA with C25U, G26C, U27A, C28A, U30C, A31U
DNA 1: CAATCTGAATTCCGGTCTCCC
DNA 2: TGGTGGCTACGACGGGATT
B4: AAAAACU (DNA:RNA)
RNA: B1 RNA with C25A, G26A, U27A, C28A, U30C, A31U
DNA 1: CAATCTGAATTCCGGTCTCCC
DNA 2: TGGTGGCTACGACGGGATT
B5: CGUUGGA (DNA:RNA)
RNA: B1 RNA with C28U, A29G, U30G
DNA 1: CAATCTGAATTCCGGTCTCCC
DNA 2: TGGTGGCTACGACGGGATT
B6: AGGUCAG (DNA:RNA)
RNA: B1 RNA with C25A, U27G, C28U, A29C, U30A, A31G
DNA 1: CAATCTGAATTCCGGTCTCCC
DNA 2: TGGTGGCTACGACGGGATT
B7: AACUCUA (DNA:RNA)
RNA: B1 RNA with C25A, G26A, U27C, C28U, A29C
DNA 1: CAATCTGAATTCCGGTCTCCC
DNA 2: TGGTGGCTACGACGGGATT
B8: CUUGCGA (DNA:RNA)
RNA: B1 RNA with G26U, C28G, A29C, U30G
DNA 1: CAATCTGAATTCCGGTCTCCC
DNA 2: TGGTGGCTACGACGGGATT
B9: UUUGCCG (DNA:RNA)
RNA: B1 RNA with C25U, G26U, C28G, A29C, U30C, A31G
DNA 1: CAATCTGAATTCCGGTCTCCC
DNA 2: TGGTGGCTACGACGGGATT
B10: CAAUACA (DNA:RNA)
RNA: B1 RNA with G26A, U27A, C28U, U30C
DNA 1: CAATCTGAATTCCGGTCTCCC
DNA 2: TGGTGGCTACGACGGGATT
B11: AUAUAAA (DNA:RNA)
RNA: B1 RNA with C25A, G26U, U27A, C28U, U30A
DNA 1: CAATCTGAATTCCGGTCTCCC
DNA 2: TGGTGGCTACGACGGGATT
B12: GGAUUUG (DNA:RNA)
RNA: B1 RNA with C25G, U27A, C28U, A29U, A31G
DNA 1: CAATCTGAATTCCGGTCTCCC
DNA 2: TGGTGGCTACGACGGGATT
B13: UGGAGUU (DNA:RNA)
RNA: B1 RNA with C25U, U27G, C28A, A29G, A31U
DNA 1: CAATCTGAATTCCGGTCTCCC
DNA 2: TGGTGGCTACGACGGGATT
B14: CGGCACU (DNA:RNA)
RNA: B1 RNA with U27G, U30C, A31U
DNA 1: CAATCTGAATTCCGGTCTCCC
DNA 2: TGGTGGCTACGACGGGATT
B15: AAGGAUC (DNA:RNA)
RNA: B1 RNA with C25A, G26A, U27G, C28G, A31C
DNA 1: CAATCTGAATTCCGGTCTCCC
DNA 2: TGGTGGCTACGACGGGATT
B16: UUUAUCG (DNA:RNA)
RNA: B1 RNA with C25U, G26U, C28A, A29U, U30C, A31G
DNA 1: CAATCTGAATTCCGGTCTCCC
DNA 2: TGGTGGCTACGACGGGATT
B17: CUUUUCA (DNA:RNA)
RNA: B1 RNA with G26U, C28U, A29U, U30C
DNA 1: CAATCTGAATTCCGGTCTCCC
DNA 2: TGGTGGCTACGACGGGATT
B18: CAGUGCG (DNA:RNA)
RNA: B1 RNA with G26A, U27G, C28U, A29G, U30C, A31G
DNA 1: CAATCTGAATTCCGGTCTCCC
DNA 2: TGGTGGCTACGACGGGATT
B19: GGCGACC (DNA:RNA)
RNA: B1 RNA with C25G, U27C, C28G, U30C, A31C
DNA 1: CAATCTGAATTCCGGTCTCCC
DNA 2: TGGTGGCTACGACGGGATT
B20: GCCGGUG (DNA:RNA)
RNA: B1 RNA with C25G, G26C, U27C, C28G, A29G, A31G
DNA 1: CAATCTGAATTCCGGTCTCCC
DNA 2: TGGTGGCTACGACGGGATT

Molecular target: T1, RBFOX1 RRM RbFoxmut (Fox-RRM*)
Assay: EMSA; HiTS-Eq, 1 nM pool, 10 min; buffer printed only for the single-RNA assays: 10 mM Tris pH 7.5, 150 mM NaCl, 3.4 mM EDTA, 0.001% NP-40, 30 C
Details: tags: His6 N-terminal (pET28a); label: 5' 32P
Procedure, shortened: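 Relative association constants, normalised to the cognate motif, were derived by comparing read counts of each RNA species with those of the control reaction. The RNA sequenced was the free fraction, separated by 8% native PAGE after a 10 min equilibration in 50 µL of 1 nM 5′-radiolabelled RNA (7 randomized nucleotides) with increasing concentrations of purified wild-type or mutant RbFox RRM.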

Question: Which binding signal does the source give for B1 here?
Answer: 0.0938 KA relative to UGCAUGU

Question: For B2, which binding signal is on record?
Answer: 0.0939 KA relative to UGCAUGU

Question: With B3 as the binder, how does the binding signal read?
Answer: 0.0725 KA relative to UGCAUGU

Question: How did the binding signal turn out when B4 was run?
Answer: 0.0883 KA relative to UGCAUGU

Question: Which binding signal does the source give for B5 here?
Answer: 0.0875 KA relative to UGCAUGU

Question: How did the binding signal turn out when B6 was run?
Answer: 0.117 KA relative to UGCAUGU

Question: How did the binding signal turn out when B7 was run?
Answer: 0.0916 KA relative to UGCAUGU

Question: For B8, which binding signal is on record?
Answer: 0.0924 KA relative to UGCAUGU

Question: For B9, which binding signal is on record?
Answer: 0.13 KA relative to UGCAUGU

Question: For B10, which binding signal is on record?
Answer: 0.115 KA relative to UGCAUGU

Question: For B11, which binding signal is on record?
Answer: 0.128 KA relative to UGCAUGU

Question: For B12, which binding signal is on record?
Answer: 0.212 KA relative to UGCAUGU

Question: With B13 as the binder, how does the binding signal read?
Answer: 0.105 KA relative to UGCAUGU

Question: With B14 as the binder, how does the binding signal read?
Answer: 0.0631 KA relative to UGCAUGU

Question: B15 was tested. Which binding signal did it give?
Answer: 0.0772 KA relative to UGCAUGU

Question: Which binding signal does the source give for B16 here?
Answer: 0.108 KA relative to UGCAUGU

Question: For B17, which binding signal is on record?
Answer: 0.0959 KA relative to UGCAUGU

Question: For B18, which binding signal is on record?
Answer: 0.148 KA relative to UGCAUGU

Question: Which binding signal does the source give for B19 here?
Answer: 0.1 KA relative to UGCAUGU

Question: Which binding signal does the source give for B20 here?
Answer: 0.112 KA relative to UGCAUGU
